Read counts are not given, so values of variants with three or more changes are uncertain.
B1: LINE1-mini (parent)
chain: GGCAGAGCUCAACACAGCGUGGCAAAGUGGCUGUGGCUAGACUGCC

Variants of: B1
Assay: self-cleavage, relative activity (ratio to wild type); higher = more cleavage; in vitro, sequencing; the parent is a self-cleaving ribozyme

Row | Variant | self-cleavage
1 | C10A G27C A39C | 0.02
2 | C10A G27C A39G | 0.01
3 | C10G A26G C37U C42G | 0
4 | C10G C13A U38C C42A | 0.01
5 | C10A C18U G30C G33U A39G | 0.02
6 | C10G A12C C18G G33A | 0.01
7 | C10A G21A C42G | 0.01
8 | C10G A14U C37G | 0.01
9 | C10G A12G G40C A41U | 0.01
10 | C10A U20C C23A U28A G36C | 0
11 | C10A U20A U38A | 0.04
12 | C10G A12G C15A A25C G27C G33A C46A | 0
13 | C10A G30U A39U C42A | 0.05
14 | C10G A11C C37G | 0.01
15 | C10G C13A G33C | 0.03
16 | C10A G27A A39U | 0.22
17 | C10A U28A G36A | 0
18 | C10G A11C G30U G40U | 0.01
19 | C10A C31G A39G | 0.03
20 | C10A G17U A24U C37G | 0.01
21 | C10G A26C U28G | 0.13
22 | C10A G30A G36C | 0.02
23 | C10A G30A G36U | 0.02
24 | C10A C18A U20G | 0.04

Row | Variant | self-cleavage
25 | C10A C23A A25C U32G C46A | 0
26 | C10A U38A G40U | 0.01
27 | C10A U38A G40A | 0.02
28 | C10A G30U G40U | 0.02
29 | C10A C31U U38A A39G | 0.03
30 | C10G A14U C18U | 0.03
31 | C10G A14U C18A | 0
32 | C10A G17A C45U | 0.05
33 | C10G A14G G33U G35A | 0.02
34 | C10A C18A G21C G27U G30A | 0.03
35 | C10G A11G A12C C13U | 0.04
36 | C10A G21C A24C | 0.02
37 | C10A C18U C23U | 0.06
38 | C10G A11C G35C A39C | 0.01
39 | C10A U38A C45G | 0.06
40 | C10A G36C A39U G44U C45A | 0
41 | C10G A25G G29U G33U | 0.01
42 | C10A G17A C23G C31U C42G | 0.01
43 | C10G A11G G19U G30A | 0.01
44 | C10A C31A G40C | 0.02
45 | C10A G17C C42U | 0.02
46 | C10A G21U A24U G35A | 0.01
47 | C10A U28C U34A | 0.68
48 | C10A G21U A39G | 0.01

Row | Variant | self-cleavage
49 | C10A U28C G30C | 0.53
50 | C10A U20C G40A G44A | 0.01
51 | C10G C13A U32G | 0.01
52 | C10A G22C C23G C31U U32A U38G | 0.02
53 | C10A G36A C46A | 0.02
54 | C10G A12U A16C C18G G30C C45G C46A | 0
55 | C10A U34G G44C | 0.01
56 | C10A C23G U32G A41U C46G | 0.02
57 | C10G A16G G35C C45A C46U | 0.01
58 | C10A G22A G29U | 0.02
59 | C10G A24G G36A A41G | 0.01
60 | C10A C15U G44C | 0.05
61 | C10A C15U G44U | 0.01
62 | C10G A11C G19A A26C U28C | 0
63 | C10A G17A G21A G40A U43C | 0.03
64 | C10G A25C U32A | 0.06
65 | C10A G35U C37G | 0.03
66 | C10A U34G C45U | 0.04
67 | C10A G17A G19A G21A | 0.04
68 | C10A G27U A41U | 0.02
69 | C10G A12U C15U U32A | 0.01
70 | C10A C23A A41U U43A | 0
71 | C10A G22A G36A | 0.01
72 | C10A G17A A25G G30U C37G G40C G44A | 0.01

Row | Variant | self-cleavage
73 | C10A G33U G40U | 0
74 | C10A G17U U20C G30C G40C | 0.08
75 | C10A G21A G22A U32C C37A G44C | 0
76 | C10A C45U C46G | 0.01
77 | C10A C18A G22U U28C U32A G36U C45U | 0
78 | C10A U20G A39G G44U | 0.03
79 | C10G C13G C15U U20A | 0.01
80 | C10G A11C G35C | 0.03
81 | C10A G29C G33C G36A | 0.02
82 | C10A C18A A25U C46U | 0.05
83 | C10A U20A U28C | 0.15
84 | C10A U38A C46A | 0.08
85 | C10A G35A U43G C45G | 0.01
86 | C10A C31A C37A C42A | 0
87 | C10A C18U G22U C46A | 0.09
88 | C10A G17A U20C C23G G44U | 0.01
89 | C10G A16C G30U | 0.03
90 | C10A G19A U43A | 0
91 | C10A G21A U38G C42U | 0.03
92 | C10A G22U G29C | 0.03
93 | C10A G17C C31A G40A | 0.02
94 | C10G A12U G30A | 0.05
95 | C10G C13U C18U U20G C23U A25U G30C C46U | 0.02
96 | C10G A14U C15A | 0.01

Row | Variant | self-cleavage
97 | C10A G17U G27U | 0.02
98 | C10A G29A G40C C42U | 0.01
99 | C10A U28A G29C G33U | 0.02
100 | C10A C31G C37U | 0.01
101 | C10A G19C U34C G36C C45U | 0.01
102 | C10A G17U G22U | 0.04
103 | C10A G19A C37A | 0.06
104 | C10A G27A C42A | 0
105 | C10A U20A C46A | 0
106 | C10A G17C G36U G40A | 0
107 | C10A C18U G19C A39C | 0.03
108 | C10A U20A G21A U38A A39C C42U | 0.05
109 | C10G A16C A24U G36C U43C | 0
110 | C10G A16U G19A A41G | 0.02
111 | C10A G17A C18A | 0.03
112 | C10G A14U G17U U38A A39U | 0.01
113 | C10A G19A C42G | 0.03
114 | C10A G21A G44U | 0.02
115 | C10G A24C C31A G35C G40C U43C | 0
116 | C10A U28C G33U G35C G40C | 0.01
117 | C10G C13A A26U | 0.03
118 | C10A C15U G40A | 0.01
119 | C10A G27C U38C A39C U43C G44C | 0.01
120 | C10G A24U G30U U32C | 0.01

Row | Variant | self-cleavage
121 | C10G A14U U20G G33A C37A | 0.02
122 | C10A U20C A26G G27U G44U | 0.01
123 | C10A G19U C23U G44U C45U | 0
124 | C10A C23G C45U | 0.06
125 | C10A U20C A24C A26U | 0.03
126 | C10A G29U G40U U43A | 0.01
127 | C10G A14C G17C C42U | 0.02
128 | C10G A14U C31A | 0
129 | C10G C13A A14C A16C | 0.02
130 | C10G A16C G27A G35A | 0.02
131 | C10G A14G U20G G29U | 0.03
132 | C10A G22C A26C U32C | 0.04
133 | C10A G22A G27U G44C | 0.02
134 | C10A C18U C42U | 0.05
135 | C10A C18A C37U G40C G44U C46U | 0
136 | C10G A26U G33U G44U | 0.01
137 | C10A G21A G29U U34C | 0.02
138 | C10A G17U G29A | 0.07
139 | C10A G17C G27U | 0.03
140 | C10A G22C C46G | 0.05
141 | C10G A26G G29C U38C | 0.01
142 | C10G A24U A39G | 0.03
143 | C10G A12U A26G G30C C37U G44C C46U | 0
144 | C10A G19U G29A C42A | 0.01

Row | Variant | self-cleavage
145 | C10A U32C C46A | 0.03
146 | C10A U20A G21A A24C G29C G33C | 0.02
147 | C10A G17U G29U U38G | 0.04
148 | C10G C13U G22A | 0.04
149 | C10G A26C G33U | 0
150 | C10A G21U G33C | 0.02
151 | C10A G19C G35C | 0.01
152 | C10A G19A A26C G33A | 0.01
153 | C10G A39G C42A | 0.05
154 | C10A G33U G36A | 0.04
155 | C10G A11G G36A | 0.01
156 | C10A G21U U28C | 0.05
157 | C10A G21U U28A | 0.04
158 | C10G C13U A16U G19U C46U | 0.02
159 | C10G A11G A12C G22A A24U | 0.02
160 | C10A C37G A39G | 0
161 | C10A G17C U34A | 0.02
162 | C10A G19A C37U G40C | 0
163 | C10A G17C G27A C31U G33A C46A | 0.01
164 | C10A G22U C23A G29U | 0.03
165 | C10A G17C C46A | 0.05
166 | C10A G22A C23A | 0.03
167 | C10A C31A U32A C37G | 0.01
